# Experimental data taken from PubChem BioAssay AID504832 (National Center for Advancing Translational Sciences (NCATS), 2011).
# Screen size: about 310,000 compounds; about 18,000 (5.8%) were called active. The inconclusive results got no clear call from the source; some entries with a clear call stand among them for comparison. Calls come from the whole dose curve; as a rule, active = well fitted inhibition curve with a large enough effect; inconclusive = small, poorly fitted or top-dose-only effect, or another doubt; inactive = no such curve, though single readings can be large or run the other way. No potency is given beside an inconclusive call; the fits are too rough.
# Test: Primary qHTS for delayed death inhibitors of the malarial parasite plastid, 48 hour incubation
# Conditions: P. falciparum luciferase growth in erythrocytes; series mostly up to 28.7 µM
# In short: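 In quantitative HTS format, infected erythrocytes bearing luciferase-reporter parasites were treated for a single generation at 37 C. Luminescence after adding detection reagent served as the growth measure.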
# Potency is the fitted concentration of half-maximal effect; tags give direction and shape of the fitted curve.
row,Structure (SMILES),Potency
1,O=C(OCc1nnc(-c2ccccc2)o1)c1cn(-c2ccccc2)nc1-c1ccccc1,"inconclusive [inhibitor, single point]"
2,O=C(Nc1ccccc1)N1CCCN(c2c(Cl)cncc2Cl)CC1,"inconclusive [inhibitor, partial curve]"
3,CCc1ccc(NS(=O)(=O)c2ccc3[nH]cc(C(=O)N4CCc5ccccc54)c(=O)c3c2)cc1,inactive
4,Oc1ccccc1/C=N/N1CCCCC1,inactive
5,O=C1Nc2ccccc2C1Cc1ccccn1 (stereo unspecified),inactive
6,CCOc1ccc(-n2cc(-c3ccccc3)c3c(SC(C)C(=O)OC)ncnc32)cc1 (stereo unspecified),"inconclusive [inhibitor, single point]"
7,CCn1c(COc2ccccc2Cl)nnc1SCC(=O)Nc1ncccc1C,inactive
8,CSc1sc2ccccc2[n+]1CCCS(=O)(=O)[O-],inactive
9,CCCCN(C(=O)c1ccc(N(C)S(=O)(=O)c2ccc(C)cc2)cc1)c1c(N)n(CCC)c(=O)[nH]c1=O,"inconclusive [inhibitor, single point]"
10,O=C(CSc1nc2ccccc2o1)NCCOc1ccccc1,inactive
11,O=C(c1cccc(Br)c1)N1CCN(C(=O)c2cccc(Br)c2)CC1,"inconclusive [inhibitor, single point]"
12,CN(C(=O)c1ccc2nc(N)sc2c1)c1ccccc1,inactive
13,CCCn1c(SCC(=O)Nc2cccc(S(=O)(=O)N3CCCC3)c2)n[nH]c1=O,"inconclusive [inhibitor, full curve, poor fit]"
14,O=C(Cc1cccc2ccccc12)NNC(=O)c1ccc(Br)o1,"inconclusive [inhibitor, single point]"
15,O=C(Nc1ccsc1C(=O)NC1CCCCC1)c1ccccc1,active: 7.38 µM
16,O=C(c1cccc(S(=O)(=O)N2CCOCC2)c1)N(Cc1nnc(-c2ccccc2Cl)o1)C1CC1,"inconclusive [inhibitor, single point]"
17,Cc1cc(C)nc(NS(=O)(=O)c2ccc(N/C=C/C(=O)c3ccc(Cl)cc3)cc2)n1,inactive
18,COc1cc2ccccc2cc1C(=O)OCC(=O)c1c(N)n(C)c(=O)n(C)c1=O,"inconclusive [inhibitor, single point]"
19,CN1CCN(c2ccccc2NC(=O)c2ccc(-c3cccc([N+](=O)[O-])c3)o2)CC1,active: 10.4 µM
20,CCOc1ccc(C(C)=O)cc1COC(=O)c1ccc2c(c1)NC(=O)CS2,"inconclusive [inhibitor, single point]"
21,CCOc1ccc(N=CC2=C(O)CC(C)(C)CC2=O)cc1,inactive
22,COC(=O)c1c[nH]n2c(=O)cc(C)nc12,"inconclusive [inhibitor, full curve, poor fit]"
23,COc1ccc(Br)cc1[C@H]1[C@@H]2C=CCC[C@@]2(C)C(=O)N1Cc1ccccc1,"inconclusive [inhibitor, single point]"

row,Structure (SMILES),Potency
1,Cc1ccc(-n2nc3c(=O)n(C(C)C(=O)NCCc4cccs4)nc(C)c3c2C)cc1 (stereo unspecified),"inconclusive [inhibitor, single point]"
2,CC(=O)O[C@]1(C(C)=O)CC[C@H]2[C@@H]3C=C(Cl)C4=CC(=O)[C@@H]5C[C@@H]5[C@]4(C)[C@H]3CC[C@@]21C,active: 10.7 µM
3,COc1ccc(OC)c(C2C(C(=O)c3ccccc3)=C(C)Nc3nc4ccccc4n32)c1 (stereo unspecified),"inconclusive [inhibitor, single point]"
4,F/C(COc1ccc2c(c1)[nH]c1ccccc12)=C1/CN2CCC1CC2,"inconclusive [inhibitor, single point]"
5,COc1ccc(CN(C)CC(=O)Nc2cc3oc4ccccc4c3cc2OC)c(OC)c1,"inconclusive [inhibitor, partial curve, poor fit]"
6,CC1CCN(c2ccc(/C=C(\C#N)c3nn(-c4ccccc4)c(N)c3C#N)cc2[N+](=O)[O-])CC1,"inconclusive [inhibitor, single point]"
7,O=C1N(Cc2cccc(Cl)c2)C[C@@H]2C[C@@H](c3ccc4nonc4c3)N3CCC[C@@]123,"inconclusive [inhibitor, single point]"
8,O=C(/C=C/c1ccc(Cl)cc1Cl)NCc1ccncc1,"inconclusive [inhibitor, full curve, poor fit]"
9,Cc1cc(C)c(NC(=O)COC(=O)c2nc3nccc(C)n3n2)c(Cl)c1,inactive
10,Cc1ccc(C(C)NC(=O)c2cc3ccccc3oc2=O)cc1C (stereo unspecified),inactive
11,CCc1cccc2c(C#N)cn(CC(=O)NCCOC)c12,active: 10.4 µM
12,CC(C)[C@H](NC(=O)[C@H]1N2C(=O)c3ccccc3C2SC1(C)C)C(=O)NCc1ccco1 (stereo partly specified),"inconclusive [inhibitor, single point]"
13,COc1cc(CNC2CCCC2)cc(Br)c1OCC(=O)Nc1ccccc1C,"inconclusive [inhibitor, partial curve]"
14,O=C(NCc1ccccc1)C(c1ccc(O)cc1)N(C(=O)c1cnccn1)c1ccccc1 (stereo unspecified),inactive
15,C/C(CC(=O)Nc1cccnc1)=N\NC(=O)C(=O)Nc1cccc(C)c1,inactive
16,Cc1cccc(NC(=O)c2nc[nH]c2C(=O)N[C@@H](CC(C)C)C(=O)OC(C)(C)C)c1,"inconclusive [inhibitor, single point]"
17,CC(=O)c1cnc(Nc2cccc(Cl)c2Cl)s1,inactive
18,CNC(=S)N(CCCn1ccnc1)Cc1c(F)cccc1Cl,"inconclusive [inhibitor, single point]"
19,CC(OC(=O)CCCc1nc2ccccc2s1)C(N)=O (stereo unspecified),inactive
20,CCCN(C(=O)COC(=O)COc1c(C)cccc1C)c1c(N)n(Cc2ccccc2)c(=O)[nH]c1=O,inactive
21,COc1ccc(-c2noc(-c3cccc(Cl)c3)n2)cc1OC,inactive
22,Cn1c(SCc2ccc(C#N)cc2)nnc1-c1cccc(Cl)c1,"inconclusive [inhibitor, partial curve]"
23,O=C(Cc1csc(NC(=O)Nc2cccc(Cl)c2)n1)NC1CCCC1,"inconclusive [inhibitor, single point]"
